Data: PubChem BioAssay AID1240 (Sanford-Burnham Center for Chemical Genomics, 2008)
Out of some 50,000 compounds screened, about 800 (1.6%) showed an effect of 50% or more. The list shows a part of the results.

biological target: Bcl-2-like protein 10 (Homo sapiens) (UniProt Q9HD36); experiment: TR3 peptide-Bcl-B binding displacers, biochemical primary FP assay, phenotype converters (AID 1240); settings: GST-Bcl-B / FITC-TR3 peptide fluorescence polarization; stronger effect = higher value; compound at 3.75 mg/L;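 note: 0% = Bcl-B with tracer peptide and DMSO and 100% = tracer peptide lacking Bcl-B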
Sequence of UniProt Q9HD36 (Q9HD36 whole entry, looked up): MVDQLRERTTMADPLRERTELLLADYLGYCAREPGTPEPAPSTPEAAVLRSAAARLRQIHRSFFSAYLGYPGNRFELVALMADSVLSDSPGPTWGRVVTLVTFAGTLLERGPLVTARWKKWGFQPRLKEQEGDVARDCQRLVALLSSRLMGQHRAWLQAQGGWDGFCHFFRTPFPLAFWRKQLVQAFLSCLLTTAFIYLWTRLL

First: Cc1[nH]nc2c1C(C(C)c1ccccc1)C(C#N)=C(N)O2 (stereo not given)
Second: Cc1ccc(Cl)cc1NC(=O)c1c(-c2ccccc2)noc1C
The displacement of the first is lower: -8% for the first, -7.7% for the second.

Going from Cc1ccccc1OCC(=O)Nc1ccc2oc(-c3ccc(F)cc3Cl)nc2c1 to Cc1cc(C)c2oc(-c3ccc(NS(=O)(=O)c4ccccc4)cc3)nc2c1, the displacement falls from 2% to -1.3%.

First: O=S(=O)(c1ccccc1)N1CCN(c2ccccn2)CC1
Second: Cc1ccc(S(=O)(=O)N2CCN(Cc3ccc(F)cc3)CC2)cc1
The displacement of the first is lower: -3.9% for the first, 10% for the second.

First: Cc1ccc(NC(=O)CN(c2ccc(Oc3ccccc3)cc2)S(C)(=O)=O)cc1
Second: COc1ccc(NC(=O)CN(c2cc(C)cc(C)c2)S(=O)(=O)c2ccccc2)c(OC)c1
The displacement of the first is higher: 5.1% for the first, -3% for the second.

First: CCN(CC)c1ccc(C(=O)Nc2ccc(Cl)cc2Cl)cc1
Second: COc1ccc(Cl)cc1NC(=O)c1ccc(C(=O)Nc2cc(Cl)ccc2OC)cc1
The displacement of the first is higher: 12.2% for the first, -7.2% for the second.

First: Cc1ccc(C(c2ccc(C)o2)c2cc(Br)cc([N+](=O)[O-])c2O)o1
Second: Cc1nn(CC(O)Cn2c3ccc(Cl)cc3c3cc(Cl)ccc32)c(C)c1Br (stereo not given)
The displacement of the first is higher: 9.3% for the first, -3% for the second.

Going from Cc1nc2ccccc2n1S(=O)(=O)c1cc([N+](=O)[O-])ccc1Cl to Cn1c(/C=C/c2ccc([N+](=O)[O-])cc2)nc2ccccc2c1=O, the displacement falls from 18.9% to 2.9%.

Going from COc1ccc(C2Nc3ccccc3NC3=C2C(=O)CC(C)(C)C3)cc1COc1ccc(F)cc1 (stereo not given) to CCOC(=O)c1c(NC(=O)c2ccc(F)cc2)sc(C(=O)Nc2ccccc2OCC)c1C, the displacement rises from -2.5% to 1.8%.

Going from COC(=O)Nc1sc(C)c(C)c1C(N)=O to COc1ccc(C(=O)Nc2ccc(NC(=O)c3ccco3)c(C)c2)cc1OC, the displacement rises from -0.7% to 11.1%.

Going from CC1=NC(c2ccccc2)(c2ccccc2)c2ccccc2O1 to O=C(O)COc1ccc(-c2ccccc2)cc1, the displacement rises from 6.5% to 13.7%.

Compared with Nc1cccc2c1C(=O)c1c(N)cccc1C2=O, CS(=O)(=O)c1ccc2nc(NC(=O)COc3ccc(Cl)cc3Cl)sc2c1 is higher in displacement: -4.2% for the first, 7.1% for the second.

Going from Cc1cc(NC(=O)c2cc3n(n2)C(C(F)(F)F)CC(c2ccc(Cl)c(Cl)c2)N3)no1 (stereo not given) to COc1ccc(/C=C/C(=O)Nc2ccc([N+](=O)[O-])cc2OC)cc1, the displacement falls from 8.1% to -6%.

In the case of O=C(CSc1ccccn1)Nc1nc2ccccc2s1, the displacement is reported as 1%.
